Data published in PubChem BioAssay AID1508642 (National Center for Advancing Translational Sciences (NCATS), 2021).
Among all 43,000 compounds or so, about 200 (0.47%) were called active. Another 12% or so got no clear call; they are omitted. The call rests on the fitted dose curve; in most records, active means well fitted cell-killing curve with a large enough effect; inconclusive means small, poorly fitted or top-dose-only effect, or effect the other way; inactive means flat fitted curve, though single readings scatter. The list shows a part of the results.

Assay: Cell viability qHTS assay in S16 Pmp22-F2sN cells; further: nearly all actives have a fitted effect of over 65% in size
Details: S16 Pmp22-F2sN Schwann cells (luciferase reporters placed in the Pmp22 gene) viability, CellTiter-Glo, 24 h; series mostly up to 57.5 µM; activity change, negative = cytotoxicity: at the top concentration
In short: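 Luminescence from CellTiter-Glo, read by CCD camera after a 15 min room-temperature incubation, served as the viability signal. Reporter Schwann cells (S16 Pmp22-F2sN) had been treated with pin-transferred compounds for 24 h at 37C.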
On the % scale 0 is the no-effect control and ±100 the full control effect; potency means the concentration at half of the fitted maximal effect.

Compound	activity change, negative = cytotoxicity	Potency
CC(=O)C(Sc1nc(-c2ccccc2Cl)nc2c1c(=O)n(C)c(=O)n2C)C(=O)N(C)C (stereo not drawn)	inactive: -9.55%	
O=C(CCc1nnc2n(Cc3ccccc3Cl)c(=O)c3ccccc3n12)Nc1ccccc1	inactive: 7.45%	
COc1ccc(NC(=O)c2ccc(-c3nc(CSc4ccccc4)c(C)o3)cc2)c(OC)c1	inactive: -9.39%	
O=C(NCc1ccc2c(c1)CCN2C(=O)c1ccncc1)c1cccc(F)c1	inactive: 1.06%	
CCOC(=O)c1[nH]c(C)c(C(=O)NCc2ccccc2Cl)c1C	inactive: -21.5%	
CCN1C(=O)c2ccccc2S(=O)c2ccc(C(=O)N3CCN(c4cccc(Cl)c4)CC3)cc21 (stereo not drawn)	inactive: -4.36%	
COC(=O)c1cc(NC(=O)CCc2c(C)nc3nc(C)nn3c2C)cc(C(=O)OC)c1	inactive: -8.22%	
O=C(Cc1ccc(F)cc1)NCCc1csc2nc(-c3ccc(Cl)cc3)nn12	inactive: -28.7%	
CCOc1ccc(NC(=O)Cn2cc(C(=O)c3ccccc3)c(=O)c3cc(OC)ccc32)cc1	inactive: 0.124%	
CCOC(=O)Cn1c(=O)cc(C)c2c(C)nn(-c3cccc(F)c3)c21	inactive: -14.1%	
Cc1ccc2c(c1)-c1onc(C(=O)N(C)c3ccc(F)cc3)c1CO2	inactive: 28%	
Cc1cccc(CC(=O)Nc2cccc(-c3cn4cccnc4n3)c2)c1	inactive: -2.74%	
CCCCn1c(SCc2ccccc2C#N)nc2c(sc3ccccc32)c1=O	inactive: -0.835%	
Cc1ccc(-n2ncc3c(=O)n(Cc4cccc(C(F)(F)F)c4)cnc32)cc1C	inactive: 5.22%	
CC1=C(C(=O)Nc2ccccc2C)C(c2ccc[nH]2)n2ncnc2N1 (stereo not drawn)	inactive: -4.9%	
CCOC(=O)c1sc(NC(=O)c2nc3ncccn3n2)c(C(=O)OC(C)C)c1C	inactive: 5.44%	
CCOc1ccccc1N1CC(c2nc3ccccc3n2CCOc2ccc(OC)cc2)CC1=O (stereo not drawn)	inactive: 3.68%	
CC(=O)N(Cc1cccnc1)c1nc2c(C)cc(C)cc2s1	inactive: -20.1%	
COc1ccc(CNC(=O)c2cc(-c3cccs3)nc3ccccc23)c(OC)c1	inactive: -17.5%	
Cc1ccc(-c2nc3ccccn3c2Nc2c(C)cccc2C)o1	inactive: 24.7%	
CC1CCc2c(sc3nnn(Cc4ccccc4)c(=O)c23)C1 (stereo not drawn)	inactive: 7.04%	
Cc1ccc(NS(=O)(=O)c2ccc3[nH]c4c(c3c2)CCCC4)c(C)c1	inactive: -4.46%	
Cc1nnc(N2CCCC(C(=O)Nc3ccccc3C(F)(F)F)C2)c2nn(-c3ccccc3)c(C)c12 (stereo not drawn)		active: 28.2 µM
O=C(CSc1oc(-c2ccccc2)nc1S(=O)(=O)c1ccc(Br)cc1)NC1CCCCC1	inactive: -5.96%	

Compound	activity change, negative = cytotoxicity	Potency
COc1ccc(CNC(=O)c2ccc3c(c2)N(Cc2ccccc2F)C(=O)c2ccccc2S3=O)cc1 (stereo not drawn)	inactive: 0.352%	
CC(=O)Nc1nonc1-c1nnc(SCc2ccccc2C)n1C	inactive: -19.1%	
CCOc1nc(NC(=O)NS(=O)(=O)Oc2cccc(F)c2)nc(-c2ccccc2)n1	inactive: -0.35%	
CCc1ccccc1NC(=O)Cc1ccc(-n2c(C)nc3cccnc32)cc1	inactive: 0.569%	
COc1ccc(OC)c(NC(=O)Cc2c(C(=O)O)[nH]c3ccc(Cl)cc23)c1	inactive: 14.1%	
COc1cccc(-c2ccc3c(N)c(C(=O)Nc4ccc(Cl)cc4F)sc3n2)c1	inactive: -4.61%	
CC(C)Cn1c(=O)c2sccc2n2c(CCCC(=O)NCC(C)c3ccccc3)nnc12 (stereo not drawn)	inactive: 14%	
O=C(NCCN1CCN(c2ccccc2F)CC1)C1COc2ccccc2C1 (stereo not drawn)	inactive: -2.69%	
Cc1cccc(C(=O)Nc2c(-c3ccc(F)cc3)nc3ccccn23)c1	inactive: -14.3%	
Cc1cc(C)n(-c2nc3cc(Cl)c(Cl)cc3nc2Nc2ccc(F)cc2C)n1	inactive: 0.556%	
CCn1c(=O)c2cc(C(=O)Nc3cc(C)c(Cl)cc3OC)sc2c2ccccc21	inactive: 13.7%	
COc1ccc(NC(=O)CSc2nc3ccccc3n2CC(=O)N2CCCC(C)C2)cc1 (stereo not drawn)	inactive: -0.897%	
Cc1ccc(NC(=O)c2cc3c(Cl)nc4ccc(C)cc4c3s2)c(Cl)c1	inactive: -0.0219%	
O=C(c1ccc(Cl)cc1)N1CCCCC1CCN1CCOCC1 (stereo not drawn)	inactive: 7.7%	
Cc1ccc(C)c(N2CCN(C(=O)c3cc4c(=O)n(Cc5cccnc5)ccc4nc3C)CC2)c1	inactive: -11%	
Cc1cc(C)c(Cn2c3ccccc3c3cnn(CC(=O)NC4CCCCCC4)c(=O)c32)c(C)c1	inactive: -0.902%	
COc1ccc(Cn2cc(C(=O)c3ccc(Cl)cc3)c(=O)c3cc4c(cc32)OCO4)cc1	inactive: 27.1%	
CCc1ccc(Nc2nn3c(=O)c4cc5c(cc4nc3s2)OCO5)cc1	inactive: 10.2%	
Cc1ccc(-n2nc3c(N4CCC(C(=O)N5CCC(C)CC5)CC4)nnc(C)c3c2C)cc1	inactive: -5.42%	
O=C(Nc1cccc(Cl)c1Cl)c1cc(S(=O)(=O)N2CCC3(CC2)OCCO3)ccc1F	inactive: -8.05%	
Cc1cc(C)cc(NC(=O)C2CCCN2S(=O)(=O)c2ccc3c(c2)C(C)(C)C(=O)N3C)c1 (stereo not drawn)	inactive: 6.07%	
CCOC(=O)C1(C)C=C(Nc2ccc(OC)cc2)C(=O)N1c1ccccc1 (stereo not drawn)	inactive: 3.48%	
COc1ccccc1NC(=O)c1oc2ccccc2c1NC(=O)c1c(F)cccc1F	inactive: -24.6%	
CCOC(=O)c1ccc(NC(=O)c2ccc3c(c2)c(C)c(C)n3Cc2ccc(F)cc2)cc1	inactive: -6.7%	
